In patent publication US20130072427A1, “GPR 119 MODULATORS” (Pfizer Inc., priority 2009, published 2013):

Molecular target: T1, human GPR119 (Homo sapiens, UniProt Q8TDV5)
T1 construct: host or cells: HEK293-CRE beta-lactamase cells
T1 sequence (Q8TDV5 1-335): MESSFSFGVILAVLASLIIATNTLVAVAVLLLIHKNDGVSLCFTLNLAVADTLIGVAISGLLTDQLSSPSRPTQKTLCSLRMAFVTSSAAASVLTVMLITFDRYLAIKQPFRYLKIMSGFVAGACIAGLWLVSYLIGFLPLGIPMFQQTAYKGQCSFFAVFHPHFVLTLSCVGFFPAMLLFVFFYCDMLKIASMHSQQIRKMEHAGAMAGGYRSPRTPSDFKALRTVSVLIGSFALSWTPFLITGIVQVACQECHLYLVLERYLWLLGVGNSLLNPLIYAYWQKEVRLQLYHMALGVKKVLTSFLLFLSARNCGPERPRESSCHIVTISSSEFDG
Assay: cAMP functional assay (HTRF, hGPR119 HEK-CRE beta-lactamase cells)
Type: cell-based
Settings: 30 minutes, one line per run
Description: GPR119 agonist activity was also determined with a cell-based assay utilizing an HTRF (Homogeneous Time-Resolved Fluorescence) cAMP detection kit (cAMP dynamic 2 Assay Kit; Cis Bio cat #62AM4PEC) that measures cAMP levels in the cell. The method is a competitive immunoassay between native cAMP produced by the cells and the cAMP labeled with the dye d2. The tracer binding is visualized by a Mab anti-cAMP labeled with Cryptate. The specific signal (i.e. energy transfer) is inversely proportional to the concentration of cAMP in either standard or sample. […]
Varying concentrations of each compound to be tested were diluted in assay buffer containing 3-isobutyl-1-methylxanthin (IBMX; Sigma cat #15879) and added to the assay plate wells in a volume of 2 microL (final IBMX concentration was 400 microM and final DMSO concentration was 0.58%). […] The plates were then incubated at room temperature and after 60 minutes, changes in the HTRF signal were read with an Envision 2104 multilabel plate reader using excitation of 330 nm and emissions of 615 and 665 nm. Raw data were converted to nM cAMP by interpolation from a cAMP standard curve (as described in the manufacturer's assay protocol) and EC50 determinations were made from an agonist-response curves analyzed with a curve fitting program using a 4-paramter logistic dose response equation.

**Q.** With `CC(C)OC(=O)N1CCC(Oc2ncnc(N3Cc4cnn(C)c4C3)c2C#N)CC1` [Example 3, Isopropyyl 4-{[5-cyano-6-(1-methyl-4,6-dihydropyrrolo[3,4-c]pyrazol-5(1H)-yl)pyrimidin-4-yl]oxy}piperidine-1-carboxylate] as the molecule, how does the EC50 read?
**A.** The EC50 was 145 nM, 153 nM, > 10 µM [lines of one column].

Certain results were filed several times, with different values. This list holds those alone. There may be further records. Values given together appear to be repeats (runs, samples, wells or individuals); a mean can stand among them.
